This note sets out measurements from PubChem BioAssay AID360 (National Center for Advancing Translational Sciences (NCATS), 2006).

Molecules are shown by their SMILES. The campaign covered roughly 48,000 compounds. About 550 (1.1%) were called active. About 4% were inconclusive and are not listed. Rule as the data show it: active = potency below about 15 µM; inconclusive = mostly about 16 µM to 33 µM; inactive = weaker than that. The list shows a part of the results.
Potency is read from the fitted curve at half-maximal effect.

Chain of UniProt P04062 (P04062 whole entry, looked up): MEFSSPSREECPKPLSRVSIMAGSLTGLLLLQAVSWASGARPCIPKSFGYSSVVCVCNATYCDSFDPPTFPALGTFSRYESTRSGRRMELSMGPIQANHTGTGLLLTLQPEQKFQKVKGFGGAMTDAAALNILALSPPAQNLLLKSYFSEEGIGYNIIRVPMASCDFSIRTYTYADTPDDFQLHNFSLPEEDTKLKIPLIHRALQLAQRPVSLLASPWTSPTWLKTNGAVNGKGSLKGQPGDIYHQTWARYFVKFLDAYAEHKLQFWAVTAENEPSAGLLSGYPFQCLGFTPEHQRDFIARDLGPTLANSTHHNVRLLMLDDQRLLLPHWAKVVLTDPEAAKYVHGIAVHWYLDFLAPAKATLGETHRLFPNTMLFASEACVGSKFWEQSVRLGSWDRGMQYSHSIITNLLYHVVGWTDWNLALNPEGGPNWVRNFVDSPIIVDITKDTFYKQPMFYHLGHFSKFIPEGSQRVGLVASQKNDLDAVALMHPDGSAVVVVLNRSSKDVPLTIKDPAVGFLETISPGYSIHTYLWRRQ

The assay addresses Lysosomal acid glucosylceramidase (Homo sapiens) (UniProt P04062). As to the kind of experiment: Glucocerebrosidase.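 Also: the screen sought inhibitors.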 The conditions noted are these: purified enzyme, resorufin glucoside fluorescence (screen aimed at inhibitors), 20 min. Put shortly:
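Wild-type enzyme at 0.2 nM final in 50mM citric acid/KH2PO4, 10mM sodium taurocholate, 0.01% tween-20, pH 5.9, with resorufin beta-D-glucopyranoside at 30 uM final. Compounds titrated, 20 min at RT, red fluorescence read; AC50 from titration.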
For `CCC(C)[C@H](NC(=O)NC1CCCc2ccccc21)C(=O)O` (some centres undefined), the Potency was inactive: > 76.9 µM. The same measure for `CCCCN1CCCCC1C(=O)Nc1c(C)cc(C)cc1C` (centres undefined): inactive: > 76.9 µM. Regarding `Cc1ccc(OCC(=O)n2cnnc2N)c(C)c1`, the Potency was inactive: > 76.9 µM.

Consider `O=c1c(O)c(-c2cccs2)oc2ccccc12`, for which the Potency is inactive: > 76.9 µM. `C=CCn1c(SCc2nc3c(c(=O)[nH]c(=O)n3CCCC)n2CCC)nnc1-c1ccccc1`: the Potency was inactive: > 76.9 µM. On to `O=C(C1CCCCC1)N1CCN(c2ccccc2F)CC1`, for which the Potency is inactive: > 76.9 µM. In the case of `COC(=O)[C@H](CCSC)NC(=O)NCCC1=CCCCC1`, the Potency was inactive: > 76.9 µM.

Consider `Cc1nc(SCC(=O)NCCc2ccccc2)n[nH]1`, for which the Potency is inactive: > 76.9 µM.

For `O=C(CCNc1cc(Cl)cc(Cl)c1)c1ccco1`, the Potency was inactive: > 76.9 µM. The figure for `Cc1ccc(N2CC(C(=O)N3CCN(C(=O)c4ccco4)CC3)CC2=O)cc1` (centres undefined) is inactive: > 76.9 µM; for `Cc1c(C(=O)O)oc2ccc(S(=O)(=O)N3CC(C)CC(C)C3)cc12` (centres undefined) it is inactive: > 76.9 µM. In the case of `CCN1CCN(CC(O)COCc2ccccc2)CC1` (centres undefined), the Potency was inactive: > 76.9 µM. Take `Cc1ccc(S(=O)(=O)N[C@@H](CC(C)C)C(=O)NCc2ccco2)cc1`: the Potency is inactive: > 76.9 µM. The same measure for `Cc1cc(C(=O)CN2C(=O)NC(Cc3c[nH]c4ccccc34)C2=O)c(C)n1C` (centres undefined): inactive: > 76.9 µM; for `CC1=C(C)NC(=S)SC1`: inactive: > 76.9 µM; for `COc1ccc(C(=O)c2no[n+]([O-])c2C(=O)c2ccc(OC)cc2)cc1`: inactive: > 76.9 µM.

As for `CCC(C)(C)n1nnnc1C(CC(C)C)N1CCC(C(N)=O)CC1` (centres undefined), the Potency was inactive: > 76.9 µM. `Cc1[nH]nc2c1C(c1cccnc1)N(c1ccc(Br)cc1)C2=O` (centres undefined): the Potency is inactive: > 76.9 µM. In the case of `COCCn1c(=S)[nH]c2cc(C(=O)N3CCc4ccccc43)ccc2c1=O`, the Potency was inactive: > 76.9 µM. For the compound `CCOC(=O)C1CCN(C(=O)NC23CC4CC(CC(C4)C2)C3)CC1`, the Potency was inactive: > 76.9 µM. For the compound `Cc1cc2oc3c(c(=O)c2cc1C)C(c1cccc(Br)c1)N(Cc1ccco1)C3=O` (centres undefined), the Potency was inactive: > 76.9 µM. As for `O=S(=O)(NC1CC1)c1cccc(S(=O)(=O)N2CCCC2)c1`, the Potency was inactive: > 76.9 µM. Consider `COc1ccc(OCc2nc(N)nc(Nc3cccc(C)c3C)n2)cc1`, for which the Potency was inactive: > 76.9 µM.

Consider `Nc1nc2ccccc2n1C(=O)CCc1ccccc1`, for which the Potency is inactive: > 76.9 µM. As for `CCOc1ccc2[nH]c(=O)c(CN(Cc3cccs3)Cc3nnnn3C(C)(C)CC)cc2c1`, the Potency is active: 15.3 µM. On to `O=C(CSc1nc2ccccc2n1CC(=O)N1CCCC1)N1CCN(C(=O)c2ccco2)CC1`, for which the Potency is inactive: > 76.9 µM. As for `COc1ccc(CNC(=O)c2ccccc2SC)cc1`, the Potency was inactive: > 76.9 µM. Turning to `CNC(=O)NC(=O)CSc1ccc(NC(C)=O)cc1`, the Potency was inactive: > 76.9 µM. The same measure for `Cc1ccc(/C=c2\s/c(=C(/C#N)C(=O)N3CCCC3)n(Cc3ccco3)c2=O)s1`: inactive: > 76.9 µM; for `COCCNC(=O)Cc1cn(C)c2ccccc12`: inactive: > 76.9 µM. The figure for `Cc1ccc(S(=O)(=O)N2CCCC2)cc1S(=O)(=O)N1CCCC1` is inactive: > 76.9 µM. The figure for `CSCCC(NC(=O)C1CCC(C)CC1)C(=O)N1CCN(c2ccccn2)CC1` (centres undefined) is inactive: > 76.9 µM; for `Cc1cccc2cc3c(NC(=O)C(C)C)nn(C)c3nc12` it is inactive: > 76.9 µM; for `Cc1ccc(-c2c3c(=O)n(C)c(=O)n(C)c3cn2Cc2ccccn2)cc1` it is inactive: > 76.9 µM. For `CC1=C(C(=O)OC(C)C)C(c2cccs2)N2C(=O)C(C)SC2=N1` (centres undefined), the Potency was inactive: > 76.9 µM. For `COc1ccc(C(C)=O)c(OC(=O)c2ccc(OC)c(OC)c2)c1`, the Potency is inactive: > 76.9 µM. As to `CC1CCN(CCCNC(=O)COc2cc(=O)n(C)c3ccccc23)CC1`, the Potency is inactive: > 76.9 µM. The same measure for `CC1CC(=O)c2cnc(Nc3cccc(C(F)(F)F)c3)nc2C1` (centres undefined): inactive: > 76.9 µM; for `OCC1(c2cc(C(F)(F)F)n[nH]2)CCCCC1`: inactive: > 76.9 µM; for `CCOC(=O)c1c(C)[nH]c(C(=O)OCc2c(C)noc2C)c1C`: inactive: > 76.9 µM. Turning to `CC(C)COc1ccc(-c2nnn(CC(=O)N3CCCC3)n2)cc1`, the Potency was inactive: > 76.9 µM. Take `COc1ccc(N2CCN(c3nc(NCCO)nc(N4CCOCC4)n3)CC2)cc1`: the Potency was inactive: > 76.9 µM. The same measure for `Cc1ccc(C(=O)CSc2nnc(-c3ccco3)n2CC2CCCO2)cc1` (centres undefined): inactive: > 76.9 µM; for `O=C(CN(C(=O)CCC(=O)Nc1ccccn1)c1ccc2c(c1)OCO2)NCc1ccco1`: inactive: > 76.9 µM; for `O=C(CCc1nc(-c2ccccc2F)no1)NCCN1CCN(Cc2ccccc2)CC1`: inactive: > 76.9 µM. Take `COc1ccc(Cn2nnc(C(=O)Nc3ccc(F)cc3)c2N)cc1`: the Potency was inactive: > 76.9 µM. With `O=C(c1ccc(Br)s1)N1CCN(Cc2ccc3c(c2)OCO3)CC1`, the Potency is inactive: > 76.9 µM. As for `COC(=O)c1[nH]c2cccc(OC)c2c1NC(=O)CN1CCN(c2cccc(OC)c2)C(C)C1` (centres undefined), the Potency was inactive: > 76.9 µM. On to `CCCCC(=O)Nc1ccc2c(c1)nc1n2CCOC1`, for which the Potency result is “inactive”. Regarding `COC(=O)c1ccc(CSc2nc3ccccc3s2)o1`, the Potency is inactive: > 76.9 µM. The figure for `NC(=O)c1ccsc1NC(=O)COC(=O)Cc1ccsc1` is inactive: > 76.9 µM. For the compound `CC1CN(C(=O)c2cc3c(=O)n4ccccc4nc3s2)CC(C)O1` (centres undefined), the Potency is inactive: > 76.9 µM. `COc1ccc(C2C=C(C)Nc3nc(SC)nn32)cc1` (centres undefined): the Potency was inactive: > 76.9 µM.

With `C#CC1(O)CC(C)NCC1(C)CCC#N` (centres undefined), the Potency was inactive: > 76.9 µM.

As for `O=C(NCc1cccs1)NC1CCCCC1`, the Potency is inactive: > 76.9 µM. Turning to `COc1ccc(F)cc1S(=O)(=O)N1CCC(C(N)=O)CC1`, the Potency was inactive: > 76.9 µM. The figure for `O=C(O)C1CC=CCC1C(=O)N1CCCC1` (centres undefined) is inactive: > 76.9 µM. Take `CN(C)CCCNC(CC(=O)Nc1ccc(Cl)cc1)C(=O)O` (centres undefined): the Potency was inactive: > 76.9 µM. The same measure for `CC(C)Oc1ccccc1C1CC(=O)Nc2cc3c(cc21)OCO3` (centres undefined): inactive: > 76.9 µM.
